Measured values reported in paper PMC4242493.
This is one part of the list. The list includes weakly bound sequences.

Each sequence was assayed against MaxL homodimer (UniProt P61244) (assay: universal protein-binding microarray (PBM)). Settings: PBS-based mixture, 10 nM His-tagged protein dimer, 2% milk, 200 ng/uL BSA, 50 ng/uL salmon testes DNA, 0.02% TX-100; detection with Alexa 488 anti-His …; high values mean tight binding; most listed sequences are background and not binding sites; double strand, one strand shown.
Chain of UniProt P61244 (P61244 whole entry): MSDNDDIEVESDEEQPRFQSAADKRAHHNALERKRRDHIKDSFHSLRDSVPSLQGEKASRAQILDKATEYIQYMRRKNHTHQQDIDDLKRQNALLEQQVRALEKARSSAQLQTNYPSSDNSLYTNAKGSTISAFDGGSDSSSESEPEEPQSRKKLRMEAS

Sequence	binding signal (normalized occupancy)
AAAGAGGG	0.0738
ATCATCCC	0.0817
CCAGATCA	0.0815
CCGTACTA	0.0713
AGTTTCGA	0.0707
CAGGCATG	0.0964
CCTGGGTC	0.0709
AGGTCGTA	0.0767
CGCCGGTA	0.0675
CTGCGACC	0.0739
ACACGGCT	0.0732
AACCATAT	0.0848
GCCAATGA	0.0735
ATCCTCTC	0.0703
AACCACCA	0.0807
ATTAGAGG	0.0752
CACAGCTA	0.0757
ACCGTCGT	0.0791
CATGCTAG	0.106
CTCCCGAC	0.0715
TAACCAGA	0.0757
GCTCCGTA	0.0695

Sequence	binding signal (normalized occupancy)
ACCGGCTG	0.0679
AGAACCCA	0.0723
CCCAAGCA	0.0813
GGCGTACA	0.0747
CACCGAGA	0.0776
AGGCTTTG	0.0697
GCTTTGAC	0.0732
TATTGGAA	0.0758
AAGAACCG	0.0698
AAATGTGA	0.0885
GTGTTAAC	0.0783
AGTTATCG	0.0696
CGCACCGC	0.0721
CGAGCCCC	0.0725
GGAAACTA	0.0719
AATGGTAC	0.0764
AGCGTATA	0.0804
CAATAGGG	0.0742
GCGAAGAA	0.0702
TAGTAGGA	0.0757
AACCGTAT	0.075
ATAAGCCG	0.0733

Sequence	binding signal (normalized occupancy)
CGCCTGAA	0.0718
ACGGTACG	0.0734
ACGTTCGG	0.0768
ACTCAGAT	0.0759
ACCGCTAT	0.0744
AATGATAG	0.0801
AAAGGAAC	0.0731
CAAAAAGG	0.0699
CAACACAA	0.0772
ACGGAGCC	0.0668
CAGGCACC	0.0774
GTGTTCGA	0.0742
CGAAGATC	0.0766
GCGTTTCC	0.0788
AGAAAATC	0.077
AACCCTCC	0.0761
TACGCTGA	0.0736
GCCCGCAC	0.0736
GAATTCAC	0.0741
AACACTTA	0.0802
AAACCCAC	0.0824
AGTAGGCA	0.0718

Sequence	binding signal (normalized occupancy)
CAATGATA	0.0804
CACACATG	0.136
AGAAGAGA	0.073
GGAATAGA	0.0805
CAATAGCC	0.0739
ACAGGTAA	0.0728
CGCCGAGA	0.0686
CTGAGAAG	0.0685
AAGATCAG	0.0746
AATAAACG	0.0766
AGGATCAA	0.0762
CGACTTCC	0.0713
TCACCACA	0.0793
CAAGCGAG	0.0757
CATAGGGC	0.0795
ATATGGTA	0.0884
CAGGCAAG	0.0736
ATTCCGGA	0.0756
GTAGCAAC	0.0821
AGTCATAA	0.0784
AGGCCTTA	0.0724
AGTGTGGG	0.0827

Sequence	binding signal (normalized occupancy)
CAGAGTCA	0.0704
CACAACGC	0.0792
TCCGTGAA	0.0753
AACAAGTG	0.0775
AAAGTATC	0.0742
GCCCAAAA	0.0679
CCTGATGC	0.0825
ACGCGGGG	0.0786
ACTCATGG	0.0945
AGCGTGGA	0.106
GTTTAATA	0.0809
ACTTGGCC	0.0668
AGTAGTTC	0.0718
ACGTAGAG	0.0814
AAGCATAC	0.0751
ACCACCCA	0.0821
AATCGGTC	0.0693
CTCATGGC	0.0965
GACCACAA	0.0763
TCTCCTAA	0.0749
AGACCTGC	0.0709
GGTGACAC	0.0824
